Test results as given in PubChem BioAssay AID493208 (National Center for Advancing Translational Sciences (NCATS), 2011).
The whole screen tested about 44,000 compounds, of which about 340 (0.77%) were called active. Roughly 5% stayed inconclusive and do not appear here. The call rests on the fitted dose curve; in most records, active means well fitted inhibition curve with a large enough effect; inconclusive means small, poorly fitted or top-dose-only effect; inactive means flat fitted curve, though single readings scatter. The list shows a part of the results.

Experiment: Acumen qHTS Assay for Inhibitors of the mTORC1 Signaling Pathway in MEF (Tsc2-/-, p53-/-) Cells: Sytravon;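 further: plate controls were DMSO for no effect and rapamycin for full effect; nearly all actives have a fitted effect of over 50% in size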
Conditions: phospho-rpS6 immunofluorescence/PI, 24 h; series mostly up to 38.3 µM; activity change, negative = inhibition: at the top concentration
How it was run: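 Cell-based qHTS: Tsc2-/- p53-/- MEF, 24 h cpd, 37 °C; fix/perm, anti-phospho-S6 Alexa-488 + PI; Acumen 488 nm scan; pS6/PI ratio, % positive cells; rapamycin 7.5 nM = inhibition ref; PI count = viability.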

Activity change, negative = inhibition, inactive:
Cc1ccc(C)c(N2CCN(C(=O)C3CCN(S(=O)(=O)c4ccc5[nH]c(=O)oc5c4)CC3)CC2)c1 -11.1%
Cc1ccc(CNC(=O)c2cccc(N3CCCS3(=O)=O)c2)cc1 1.1%
COC(=O)c1cccc(NC(=O)N(C)CCc2c(C)nn(C)c2C)c1 0%
CN(C(=O)CSc1nc2ccc(NC(=O)c3ccccc3F)cc2s1)c1ccccc1 -6.48%
CCCCn1cc(S(=O)(=O)c2ccc(OCC)cc2)c(=O)c2cc(OC)c(OC)cc21 -2.58%
CCc1ccc(-n2nc3ccc(NC(=O)c4cc(Cl)c(OC)c(Cl)c4)cc3n2)cc1 13.8%
CCOc1ccc(C2C(=O)N(C3CCCCCC3)CC(=O)N2CCC2=CCCCC2)cc1OC (stereo not drawn) 3.65%
CCOc1ccc(CNC(=O)Cn2nc(C)n3cccc3c2=O)cc1 -2.38%
Cc1ccc(NC(=O)CN(CCc2ccccc2)S(=O)(=O)c2ccccc2)c(C)c1 0.894%
Cc1ccc(CNC(=O)Cn2c(=O)n(Cc3ccccc3)c(=O)c3c2c2cc(C)ccc2n3C)cc1 -6.12%
COc1ccc(CN2CCc3nc(Nc4ccccc4)ncc3C2)c(OC)c1OC 0%
COc1cc(N2C(=O)CSC23C(=O)N(C)c2ccccc23)cc(OC)c1OC (stereo not drawn) 2.08%
COCCN1Cc2cccc(C(=O)Nc3ccc(C)c(F)c3)c2C1=O 0.763%
Cc1cc(C)cc(NC(=O)C(=O)NCC(c2ccc3c(c2)OCO3)N2CCOCC2)c1 (stereo not drawn) 0.287%
Fc1ccc(-c2cc(-c3nc(-c4ccccc4)no3)[nH]n2)cc1 7.55%
COc1ccc(Nc2nc3c(S(=O)(=O)c4ccccc4)nnn3c3ccc(Cl)cc23)c(OC)c1 -5.92%
CC(C)c1ccc(NC(=O)c2cn(C3CCCCC3)c(=O)c3c2c2ccccc2n3C)cc1 -11.7%
Cc1ccccc1NC(=O)N1CCc2cc(S(=O)(=O)N3CCC(C)CC3)ccc21 -0.666%
Cc1ccccc1CNC(=O)c1cccc(NC(=O)c2nsc3ccccc23)c1 1.22%
COc1ccc(-c2nc(C)c(CCNC(=O)c3ccc(F)c(F)c3)s2)cc1 -3.82%
COc1ccccc1C1=NS(=O)(=O)N(C)C(C(=O)Nc2cc(OC)c(OC)c(OC)c2)=C1 0.228%
Cc1nc2nc(SCC(=O)Nc3cccc(Cl)c3)nn2c(C)c1Cc1ccccc1 -14.4%
CCCCn1c(=N)c(S(=O)(=O)c2ccccc2)cc2c(=O)n3cccc(C)c3nc21 9.04%
CC(C)Cn1cc(NC(=O)NCc2ccccc2)c2ccccc2c1=O 2.57%
Cc1ccc2c(c1)c1c(c(=O)n(-c3cccc(Cl)c3)c(=O)n1CC(=O)c1ccc(Cl)cc1)n2C 0%
COc1ccc(N2C(=O)CSC23C(=O)N(Cc2ccccc2F)c2ccccc23)cc1Cl (stereo not drawn) -10.1%
O=S(=O)(NCc1ccccc1Cl)c1ccc(-c2cnc(C3CC3)o2)cc1 -7.97%
COc1ccc(-c2cn3cccnc3n2)cc1NC(=O)COc1ccccc1 1.07%
Cc1c(CC(=O)N2CCCCC2)c(=O)oc2cc3occ(C(C)(C)C)c3cc12 1.76%
CCC1=Nc2cc(C(=O)NCc3ccccc3OC)ccc2Sc2ccc(Cl)cc21 10.5%
COCCNc1ncnc2c1cnn2-c1cc(Cl)ccc1C 8.88%
Cc1cc(C)c2c(n1)SCC(=O)N2CC(=O)Nc1ccc(C)c(C)c1 -4.57%
Cc1ccc(OCC(=O)Nc2ccc(OCc3cc(=O)n4ccsc4n3)cc2)cc1 1.76%
CCC(=O)N1c2ccccc2CC1C(=O)NCCc1ccccc1Cl (stereo not drawn) 7.36%
Cc1ccc(S(=O)(=O)C2(C(=O)Nc3ccc(C)c(Cl)c3)CC2)cc1 0.805%
Cc1ccc(CNC(=O)CCS(=O)(=O)c2cc3c(cc2Cl)NC(=O)CO3)cc1 1.6%
COc1ccc(N2CCN(CC(O)COc3ccc(C)cc3C)CC2)cc1 (stereo not drawn) -2.2%
COc1ccc(N2CCN(c3ncnc4c3cnn4-c3ccc(C)c(Cl)c3)CC2)cc1 10.3%
CC(C)(C)C(=O)NC1(C(F)(F)F)NC(=O)N(c2ccc(F)cc2)C1=O (stereo not drawn) 2.94%
Cc1ccc(Cl)cc1N1CCN(C(=O)CN2C(=O)COc3ccc(S(=O)(=O)N4CCC(C)CC4)cc32)CC1 -0.0585%
O=C(NCc1ccc(Cl)cc1)c1ccc(NC(=O)N2CC3CCCN3c3ccccc32)cc1 (stereo not drawn) 3.02%
Cc1c(C(=O)NCc2ccccc2Cl)sc2nc(-c3ccc(F)cc3)cn12 -7.91%
COc1ccc(CNC(=O)c2ccc(-c3nc(CSc4ccc(C)cc4)c(C)o3)cc2)cc1OC -0.137%
Cc1nn(C(=O)c2ccccc2)c(C)c1S(=O)(=O)N1CCOCC1 0.666%
CCC(=O)N1CCc2cc(S(=O)(=O)NC(C(=O)NCc3ccccc3Cl)C(C)C)ccc21 (stereo not drawn) -2.71%
CCOC(=O)C1CCN(C(=O)Cn2c(-c3cccs3)cc3cc(Cl)ccc32)CC1 -9.29%
CCOC(=O)CN(Cc1ccccc1)C(C(=O)NC1CCCCC1)c1ccc(C)cc1 (stereo not drawn) -15.5%
CCOc1ccccc1CNS(=O)(=O)c1ccc2c(c1)C(C)(C)C(=O)N2C -1.45%
